Test results from PubChem BioAssay (NCATS).
Where “and” joins values, the source holds several entries; their conditions need not be identical. Identical values can stand only once. The shares of active, inactive and inconclusive entries below differ from those in the screen. Potencies beside an inconclusive call are fits to weak or partial responses and may not hold up. Calls of active or inactive are those of the source. Calls follow the shape of the dose curve; as a rule, active = well fitted curve in the direction sought with a large enough effect; inconclusive = small, poorly fitted or top-dose-only effect, or another doubt; inactive = no such curve, though single readings can be large; an effect the other way counts as inactive or inconclusive.

What was measured:
HaCat = experiment: Cytotoxic Profiling of Annotated Libraries Using Quantitative High-Throughput Screening (AID 1296008); conditions: Five cell lines viability, CellTiter-Glo ATP luminescence, 48-72 h; max response: active compounds read low; as to max response: % is scaled to controls: 0 for no effect and ±100 for the full control effect
Outline: (§1)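 Cytotoxicity was measured as CellTiter-Glo ATP luminescence, read after 10 min at room temperature. Compound treatment of the cells lasted 48 or 72 hr at 37 degrees Celsius in a qHTS format.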

KB-3-1 = experiment: as above; conditions: Five cell lines viability, CellTiter-Glo ATP luminescence, 48-72 h; max response: active compounds read low
Outline: as §1

NIH3T3 = experiment: as above; conditions: Five cell lines viability, CellTiter-Glo ATP luminescence, 48-72 h; max response: active compounds read low
Outline: as §1

[1] = qHTS assay to identify inhibitors of the type 1 interferon - major histocompatibility complex class I in skeletal muscle: Counter screen cell viability and HiBit confirmation (AID 1347412); conditions: iHSKM muscle cells + IFN-b, HiBiT or CellTiter-Glo, 24 h
Outline: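 Duplicate plates, pinned identically: one read for HiBiT-tagged endogenous HLA-B luminescence, the other for ATP-content viability via CellTiter Glo. Cells were genome-engineered human myoblasts given 4 ng/ml IFN-b; compounds 12-pt, 1:3 from 46 uM final; 24 hr exposure.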
Also: nearly all actives have a fitted effect of over 60% in size.
Potency is read from the fitted curve at half-maximal effect; tags tell the direction and shape of the fitted curve.

## CO/C1=C\C(C)=C\[C@@H](C)[C@@H](O)[C@@H](C)C/C(C)=C/C=C/[C@H](OC)[C@@H]([C@@H](C)[C@@H](O)[C@H](C)[C@@]2(O)C[C@@H](O)[C@H](C)[C@@H](C(C)C)O2)OC1=O
HaCat
  Potency: inconclusive: 1.93 µM [inhibitor, partial curve, poor fit]
KB-3-1
  Potency: active: 0.0611 µM

## CC[C@H]1C=CC=CC[C@@H](C)[C@H](O)[C@@](C)(O)C(=O)[C@@H](C)[C@H](O)[C@@H](C)C(=O)[C@@H](C)[C@H](O)[C@@H](C)C=CC(=O)O[C@@H]2[C@@H](C)[C@H](CC1)O[C@]1(CC[C@H](C)[C@H](C[C@@H](C)O)O1)[C@H]2C
HaCat
  Potency: inconclusive: 37.2 µM [inhibitor, single point]
KB-3-1
  Potency: active: 0.372 µM

## CC1=CC(=O)[C@@H](O)[C@@]2(C)C1C[C@H]1OC(=O)[C@H](O)[C@@]3(O)[C@@H](C)[C@@H](O)[C@H](O)C2[C@@]13C (stereo partly specified)
HaCat
  Potency: inconclusive: 18 µM [inhibitor, single point]
KB-3-1
  Potency: active: 6.4 µM
NIH3T3
  Potency: inconclusive: 9.04 µM [inhibitor, partial curve]

## Cc1c(N)nc([C@H](CC(N)=O)NC[C@@H](N)C(N)=O)nc1C(=O)N[C@H](C(=O)N[C@@H](C)[C@H](O)[C@@H](C)C(=O)N[C@@H](C(=O)NCCc1nc(-c2nc(C(=O)NCCC[S+](C)C)cs2)cs1)[C@@H](C)O)C(O[C@H]1O[C@H](CO)[C@H](O)[C@@H](O)[C@@H]1O[C@H]1O[C@H](CO)[C@@H](O)[C@H](OC(N)=O)[C@H]1O)c1cnc[nH]1 (stereo partly specified)
HaCat
  Potency: inconclusive: 0.935 µM [inhibitor, full curve, poor fit]
KB-3-1
  Potency: inconclusive: 0.833 µM [inhibitor, full curve]

## CC(O)=C(C#N)C(=O)Nc1cc(Br)ccc1Br
HaCat
  Potency: inconclusive: 29.6 µM [inhibitor, single point]
KB-3-1
  outcome: inactive

## CC(=O)O[C@H]1C[C@]2(O)[C@@H]3CC[C@@H]4C[C@@H](O)CC[C@]4(C)[C@H]3CC[C@]2(C)[C@H]1c1ccc(=O)oc1
HaCat
  Potency: inconclusive: 0.103 µM [inhibitor, full curve, poor fit]
KB-3-1
  Potency: active: 0.058 µM

## CCOC(=O)Nc1ccc(NCc2c(C)cc(C)cc2C)cc1N
HaCat
  Potency: inconclusive: 20.6 µM [inhibitor, single point]
KB-3-1
  Potency: inconclusive: 23.1 µM [inhibitor, single point]

## CC(C)(C)c1cc(C=C(C#N)C#N)cc(Br)c1O
HaCat
  max response: inactive: 3.48%
KB-3-1
  Potency: inconclusive: 33.2 µM [inhibitor, single point]

## CC(C)[C@H]1OC(=O)[C@H](Cc2ccccc2)N(C)C(=O)[C@@H](C(C)C)OC(=O)[C@H](Cc2ccccc2)N(C)C(=O)[C@@H](C(C)C)OC(=O)[C@H](Cc2ccccc2)N(C)C1=O
HaCat
  Potency: inconclusive: 10.9 µM [inhibitor, partial curve, poor fit]
KB-3-1
  Potency: inconclusive: 9.68 µM [inhibitor, single point]

## C[C@@H]1O[C@@H](OC2CCC3(C=O)C(CCC4C3CCC3(C)C(C5=CC(=O)OC5)C(O)CC43O)C2)[C@H](O)[C@H](O)[C@H]1O[C@@H]1O[C@H](CO)[C@@H](O)[C@H](O)[C@H]1O (stereo partly specified)
HaCat
  Potency: inconclusive: 9.68 µM [inhibitor, single point]
KB-3-1
  Potency: inconclusive: 8.62 µM [inhibitor, single point]

## COC1C(O)C(C)OC(OC2C(CO)O[C@@H](O[C@@H]3CC4CCC5C(CC[C@]6(C)[C@@H](C7=CC(=O)OC7)CC[C@]56O)[C@@]4(C)[C@H](OC(C)=O)C3)C(O)C2O)C1O (stereo partly specified)
HaCat
  Potency: active: 4.32 µM
KB-3-1
  Potency: inconclusive: 6.11 µM [inhibitor, single point]

## C/C=C(\C)C(=O)O[C@H]1CC2C(=C1C)[C@H]1OC(=O)[C@](C)(O)[C@]1(O)[C@H](OC(=O)CCC)C[C@@]2(C)OC(C)=O (stereo partly specified)
HaCat
  Potency: inconclusive: 14.2 µM [inhibitor, single point]
KB-3-1
  Potency: inconclusive: 7.96 µM [inhibitor, single point]

## C[C@]12CC[C@H](O)CC1=CC[C@@H]1C2CC[C@]2(C)[C@@H](C3=CC(=O)OC3)CC[C@]12O (stereo partly specified)
HaCat
  Potency: inconclusive: 20.2 µM [inhibitor, single point]
KB-3-1
  Potency: inconclusive: 12.8 µM [inhibitor, single point]

## CN1Cc2c(ccc3c2OCO3)[C@@H]2[C@H]1c1cc3c(cc1C[C@@H]2O)OCO3
HaCat
  Potency: inconclusive: 3.21 µM [inhibitor, single point]
KB-3-1
  Potency: active: 2.86 µM

## C[C@]12CCC(=O)C=C1CC[C@@H]1[C@H]3CC[C@](C)(O)[C@@]3(C)CC[C@@H]12
HaCat
  Potency: inconclusive: 61.7 µM [inhibitor, single point]
KB-3-1
  Potency: inconclusive: 63.1 µM [inhibitor, single point]
NIH3T3
  Potency: inconclusive: 49 µM [inhibitor, single point]

## CO[C@@H]1[C@H](O)[C@@H](O[C@@H]2C[C@H]3CC[C@@H]4C(CC[C@]5(C)[C@@H](C6=CC(=O)OC6)CC[C@]45O)[C@@]3(C)[C@H](O)C2)O[C@H](C)[C@@H]1O (stereo partly specified)
HaCat
  Potency: active: 1.78 µM
KB-3-1
  Potency: active: 0.448 µM

## CC(C)[C@H](NC(=O)c1nn(Cc2ccc(F)cc2)c2ccccc12)C(N)=O
HaCat
  Potency: inconclusive: 0.366 µM [inhibitor, partial curve, poor fit]
KB-3-1
  max response: inactive: 0.24%

## Cc1cccc(NC(=O)N[C@H]2CN(C)c3ccccc3C(c3ccccc3)=N2)c1
HaCat
  outcome: inactive
KB-3-1
  max response: inactive: 6.39%

## COC1=CC(C)=C[C@@H](C)[C@@H](O)[C@@H](C)CC(C)=CC=C[C@H](OC)[C@H]([C@@H](C)[C@@H](O)[C@H](C)[C@@]2(O)C[C@@H](O)[C@H](C)[C@@H](C(C)C)O2)OC1=O
HaCat
  Potency: inconclusive: 0.0093 µM [inhibitor, full curve]
KB-3-1
  Potency: active: 0.0059 µM

## Fc1cc(F)c2c(c1)[C@H]1C=CC[C@H]1C(c1cccnc1)N2 (stereo partly specified)
HaCat
  Potency: inconclusive: 29.1 µM [inhibitor, single point]
KB-3-1
  Potency: active: 4.11 µM

## O=C(O)c1cc(Oc2ccc(C(F)(F)F)cc2Cl)ccc1[N+](=O)[O-]
HaCat
  Potency: inconclusive: 33.5 µM [inhibitor, single point]
KB-3-1
  max response: inactive: -8.96%

## CC[C@@H]1C[C@H]2CC[C@H](O2)[C@H](C)C(=O)O[C@@H](C)C[C@@H]2CC[C@@H](O2)[C@@H](C)C(=O)O[C@H](C)C[C@H]2CC[C@H](O2)[C@H](C)C(=O)O[C@@H](C)C[C@@H]2CC[C@@H](O2)[C@@H](C)C(=O)O1
HaCat
  Potency: active: 0.485 µM
KB-3-1
  Potency: active: 0.0968 µM

## CC1=CC2/C=C(\C)CCC(O)C(O)/C=C/C(=O)C23C(=O)NC(CC(C)C)C3C1C (stereo unspecified)
HaCat
  Potency: inconclusive: 14.2 µM [inhibitor, single point]
KB-3-1
  Potency: inconclusive: 11.2 µM [inhibitor, single point]

## c1cc2ccc3cccc4ccc(c1)c2c34
HaCat
  Potency: inconclusive: 72.1 µM [inhibitor, single point]
KB-3-1
  max response: inactive: -15.2%

## O=C(NCCN1CCC2(CC1)C(=O)NCN2c1cccc(F)c1)c1ccc(F)c(F)c1
HaCat
  Potency: inconclusive: 29.1 µM [inhibitor, single point]
KB-3-1
  Potency: inconclusive: 23.1 µM [inhibitor, single point]

## Nc1ccc(Sc2ccc(N)cc2)cc1
HaCat
  Potency: inconclusive: 9.69 µM [inhibitor, full curve, poor fit]
KB-3-1
  max response: inactive: -8.88%

## CN1CCN(c2nc3ccccc3nc2Cl)CC1
HaCat
  max response: inconclusive: -31.7% [inhibitor]

## O=C(O)CNC(=O)c1c(O)c2ccccc2n(Cc2ccccc2)c1=O
HaCat
  Potency: inconclusive: 6.51 µM [inhibitor, partial curve, poor fit]
KB-3-1
  max response: inactive: 5.38% and inactive: 7.42%

## C[C@@H]1CC[C@H]2[C@@H](C)C(=O)O[C@@H]3O[C@@]4(C)CC[C@H]1[C@]32OO4
HaCat
  max response: inactive: -10.9%
KB-3-1
  max response: inactive: -6.88%

## CC1=CC(=O)[C@@H](O)[C@]2(C)C3[C@@H](O)[C@@H]4OC(=O)[C@@H]([C@H]4C)[C@]3(C)C(=O)C[C@@H]12 (stereo partly specified)
HaCat
  Potency: active: 11.4 µM
KB-3-1
  Potency: active: 4.53 µM
NIH3T3
  Potency: active: 3.6 µM

## CN[C@@H]1C[C@H]2O[C@@](C)([C@@H]1OC)n1c3ccccc3c3c4c(c5c6ccccc6n2c5c31)C(=O)NC4
HaCat
  Potency: active: 0.184 µM
KB-3-1
  Potency: active: 0.13 µM
NIH3T3
  Potency: inconclusive: 0.0046 µM [inhibitor, full curve, poor fit]
[1]; HiBiT
  Potency: active: 0.198 µM
[1]; Viability
  Potency: inconclusive: 0.0044 µM [cytotoxic, full curve, poor fit]

## CC(C)(O)C=CC(=O)[C@](C)(O)[C@H]1[C@H](O)C[C@]2(C)[C@@H]3CC=C4[C@@H](C=C(O)C(=O)C4(C)C)[C@]3(C)C(=O)C[C@@]12C
HaCat
  Potency: inconclusive: 0.166 µM [inhibitor, full curve, poor fit]
KB-3-1
  Potency: active: 0.132 µM
NIH3T3
  Potency: active: 2.96 µM

## O=C1Nc2ccc3ncsc3c2/C1=C/c1cnc[nH]1
HaCat
  Potency: active: 4.11 µM
KB-3-1
  Potency: active: 2.31 µM
NIH3T3
  Potency: inconclusive: 29.1 µM [inhibitor, single point]

## O=C(N[C@@H](COc1ccc2[nH]c(=O)[nH]c2c1)c1ccccc1)c1cccn(Cc2ccc(F)c(F)c2)c1=O
HaCat
  Potency: inconclusive: 18.4 µM [inhibitor, single point]
KB-3-1
  Potency: inconclusive: 16.4 µM [inhibitor, single point]
NIH3T3
  Potency: inconclusive: 37.2 µM [inhibitor, single point]
